# According to US20220233553A1, “CELLULAR SENESCENCE ACTIVATING COMPOUNDS” (UNIVERSIDAD NACIONAL AUTONOMA DE MEXICO, priority 2019, published 2022):
# System: HCT-116 cell xenotransplantation
# Test: Cell morphology in tumor tissues (hematoxylin-eosin, DAPI)
# Details: tumor tissues of treated mice vs control group
compound,measurement,value
"CC1(C)C(=O)CC[C@]23C[C@]24CC[C@]2(C)C([C@]5(C)CC[C@H](C(C)(C)O)O5)[C@@H](O)C[C@@]2(C)C4CCC13 (stereo partly shown) [In, Argentantine A]",cell morphology in tumor tissues stained with hematoxylin-eosin,slightly elongated nuclei and greater space between them
